Reference: the supplement of paper PMC4967469
pIC50: −log10 of the molar value. Lines with a small IC50 respond at low doses; fits outside the tested doses are given as limits. AUC is the area under the same curve over the 256-fold range up to the top dose, as a fraction; values near 1 show little effect. For some of these results: Any top dose called inferred was derived from the fitted curves, not read from the paper.

Key:
Assay in all cases: Viability of human cancer cell lines after 72 h of drug (GDSC screen)
ABT-263 = compound: CC1(C)CCC(c2ccc(Cl)cc2)=C(CN2CCN(c3ccc(C(=O)NS(=O)(=O)c4ccc(N[C@H](CCN5CCOCC5)CSc5ccccc5)c(S(=O)(=O)C(F)(F)F)c4)cc3)CC2)C1 [ABT-263]; details: top dose 2 µM; top dose inferred
Description: (§1)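 Human cancer cell lines in 384-well plates, medium with 10% serum, drug for 72 h over a 256-fold dose range (nine 2-fold or five 4-fold steps up to the top dose). Adherent lines were fixed and stained with the nucleic acid dye Syto60, suspension lines read with resazurin; signal relative to control wells, capped at 0 and 100%. One two-parameter sigmoid per drug and line, fitted in a mixed model over all curves with the slope shared within a line.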

GW 441756 = compound: Cn1cc(/C=C2\C(=O)Nc3cccnc32)c2ccccc21 [GW 441756]; details: top dose 2 µM; top dose inferred
Description: as §1

PIK-93 = compound: CC(=O)Nc1nc(C)c(-c2ccc(Cl)c(S(=O)(=O)NCCO)c2)s1 [PIK-93]; details: top dose 20 µM
Description: as §1

piperlongumine = compound: COc1cc(/C=C/C(=O)N2CCC=CC2=O)cc(OC)c1OC [piperlongumine]; details: top dose 10 µM
Description: as §1

Cell Line | AUC (ABT-263) | pIC50 (ABT-263) | AUC (GW 441756) | pIC50 (GW 441756) | AUC (PIK-93) | pIC50 (PIK-93) | AUC (piperlongumine) | pIC50 (piperlongumine)
NCI-H2347 (lung adenocarcinoma, adherent) | 0.939 | < 5.70 | 0.97 | < 5.70 | 0.851 | < 4.70 | 0.803 | 5.20
Ca-Ski (cervix, adherent) | 0.892 | < 5.70 | 0.897 | < 5.70 | 0.583 | 5.67 | 0.627 | 5.83
SK-N-AS (neuroblastoma, adherent) | 0.982 | < 5.70 | 0.943 | < 5.70 | 0.927 | < 4.70 | 0.751 | 5.43
OE19 (oesophagus, adherent) | 0.93 | < 5.70 | 0.975 | < 5.70 | 0.986 | < 4.70 | 0.814 | 5.20
RERF-LC-KJ (lung adenocarcinoma, adherent) | 0.98 | < 5.70 | 0.788 | 6.04 | 0.913 | < 4.70 | 0.849 | 5.10
Hs766T (pancreas, adherent) | 0.907 | < 5.70 | 0.967 | < 5.70 | 0.981 | < 4.70 | 0.923 | < 5.00
BFTC-905 (bladder, adherent) | 0.979 | < 5.70 | 0.963 | < 5.70 | 0.905 | < 4.70 | 0.81 | 5.36
COLO-783 (melanoma, adherent) | 0.581 | 6.68 | 0.919 | < 5.70 | 0.952 | < 4.70 | 0.985 | < 5.00
SUIT-2 (pancreas, adherent) | 0.981 | < 5.70 | 0.986 | < 5.70 | 0.527 | 5.83 | 0.823 | 5.20
SW756 (cervix, adherent) | 0.931 | < 5.70 | 0.574 | 6.69 | 0.965 | < 4.70 | 0.603 | 5.90
EMC-BAC-1 (lung adenocarcinoma, adherent) | 0.843 | 5.76 | 0.968 | < 5.70 | 0.68 | 5.37 | 0.82 | 5.17
NCI-H2291 (lung adenocarcinoma, adherent) | 0.933 | < 5.70 | 0.984 | < 5.70 | 0.983 | < 4.70 | 0.923 | < 5.00
COR-L23 (large cell lung carcinoma, adherent) | 0.95 | < 5.70 | 0.988 | < 5.70 | 0.766 | 5.15 | 0.705 | 5.63
G-401 (kidney, adherent) | 0.983 | < 5.70 | 0.984 | < 5.70 | 0.733 | 5.21 | 0.741 | 5.48
HT-1197 (bladder, adherent) | 0.964 | < 5.70 | 0.985 | < 5.70 | 0.956 | < 4.70 | 0.804 | 5.21
HT-29 (large intestine, adherent) | 0.987 | < 5.70 | 0.982 | < 5.70 | 0.792 | 5.04 | 0.861 | 5.07

Cell Line | AUC (ABT-263) | pIC50 (ABT-263) | AUC (GW 441756) | pIC50 (GW 441756) | AUC (PIK-93) | pIC50 (PIK-93) | AUC (piperlongumine) | pIC50 (piperlongumine)
HCC-56 (large intestine, adherent) | 0.957 | < 5.70 | 0.983 | < 5.70 | 0.94 | < 4.70 | 0.79 | 5.34
PCI-15A (head and neck, adherent) | 0.845 | 5.83 | 0.871 | 5.72 | 0.979 | < 4.70 | 0.819 | 5.24
NCI-H650 (lung adenocarcinoma, adherent) | 0.986 | < 5.70 | 0.983 | < 5.70 | 0.874 | < 4.70 | 0.763 | 5.40
SK-N-SH (neuroblastoma, adherent) | 0.903 | < 5.70 | 0.98 | < 5.70 | 0.779 | 5.09 | 0.625 | 5.86
KYSE-410 (oesophagus, adherent) | 0.927 | < 5.70 | 0.948 | < 5.70 | 0.894 | < 4.70 | 0.749 | 5.47
YAPC (pancreas, adherent) | 0.973 | < 5.70 | 0.985 | < 5.70 | 0.915 | < 4.70 | 0.969 | < 5.00
CCF-STTG1 (glioma, adherent) | 0.972 | < 5.70 | 0.922 | < 5.70 | 0.896 | < 4.70 | 0.855 | 5.09
OE21 (oesophagus, adherent) | 0.867 | < 5.70 | 0.934 | < 5.70 | 0.876 | < 4.70 | 0.739 | 5.40
RCM-1 (large intestine, adherent) | 0.872 | < 5.70 | 0.985 | < 5.70 | 0.953 | < 4.70 | 0.956 | < 5.00
CAL-29 (bladder, adherent) | 0.901 | < 5.70 | 0.984 | < 5.70 | 0.685 | 5.37 | 0.586 | 5.96
TYK-nu (ovary, adherent) | 0.941 | < 5.70 | 0.978 | < 5.70 | 0.903 | < 4.70 | 0.724 | 5.55
LK-2 (lung squamous cell carcinoma, adherent) | 0.923 | < 5.70 | 0.96 | < 5.70 | 0.871 | 4.77 | 0.929 | < 5.00
HCC1428 (breast, adherent) | 0.935 | < 5.70 | 0.983 | < 5.70 | 0.964 | < 4.70 | 0.878 | < 5.00
NCI-H2342 (lung adenocarcinoma, adherent) | 0.827 | – | 0.981 | < 5.70 | 0.984 | < 4.70 | 0.787 | 5.32
451Lu (melanoma, adherent) | 0.913 | < 5.70 | 0.974 | < 5.70 | 0.898 | < 4.70 | 0.805 | 5.32
